According to PubChem BioAssay AID651820 (National Center for Advancing Translational Sciences (NCATS), 2012):
Out of some 340,000 compounds screened, about 12,000 (3.5%) were called active. Inconclusive means that the source gave no clear call. Such entries were picked first, then a sample of the others. Calls follow the shape of the dose curve; as a rule, active = well fitted inhibition curve with a large enough effect; inconclusive = small, poorly fitted or top-dose-only effect, or another doubt; inactive = no such curve, though single readings can be large or run the other way. Potencies of inconclusive entries are left out as doubtful fits.
% is scaled to controls: 0 for no effect and ±100 for the full control effect; potency is read from the fitted curve at half-maximal effect; tags tell the direction and shape of the fitted curve.

Assay: qHTS Assay for Inhibitors of Hepatitis C Virus (HCV)
Conditions: Huh7.5.1 HCVcc-Cre (HCVcc is cell-culture hepatitis C virus) infection, luciferase reporter, 44 h; activity change, negative = inhibition: at 41.8 µM (top of the series) unless noted
Method in brief: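 Compounds are dispensed onto cells plated 4 h earlier at 1,000 per well, with HCVcc-Cre virus (about 0.5 moi) added next. Following 44 h of culture, luminescent signal is measured for 15 sec after 15 min with substrate at room temperature.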
For O=C(CCN1C(=O)COc2ccccc21)NCCCN1CCc2ccccc2C1, the Potency was inconclusive [inhibitor, single point].
With CCOC(=O)N1CCN(C(=O)Nc2ccc3nc(C)sc3c2)CC1 the Potency was inconclusive [inhibitor, partial curve, poor fit].
In the case of CC(=O)c1cccc(CN2CCC(C(=O)Nc3ccc(Oc4cccnc4)cc3)CC2)c1, the Potency is reported as inconclusive [inhibitor, single point].
For CCN(c1ccccc1)S(=O)(=O)c1nnc(NC(=O)CC(C)C)s1, the “activity change, negative = inhibition” value was inactive: 8.42%.
For CC(Sc1nnc(NC2CCCCC2)s1)C(=O)Nc1ccc2c(c1)C(=O)c1ccccc1C2=O (stereo unspecified), the Potency was inconclusive [inhibitor, single point].
For Cc1ccc2nc(N3CCN(Cc4nnnn4C4CCCC4)CC3)c(C#N)cc2c1, the Potency was inconclusive [inhibitor, partial curve].
For CCCSc1nnc(CSc2nc3ccccc3s2)n1-c1ccccc1, the Potency was inconclusive [inhibitor, partial curve].
With O=C(CC1(O)C(=O)Nc2cc(Cl)cc(Cl)c21)c1ccccc1O (stereo unspecified) the Potency was active: 25.1 µM.
In the case of COc1ccc(NS(=O)(=O)c2ccc(NC(=S)NCC3CCCO3)cc2)cc1 (stereo unspecified), the Potency is reported as inconclusive [inhibitor, single point].
For COC(=O)c1ccc2c(=O)n(CCCCCC(=O)N3CCN(c4ccccc4)CC3)c(=O)[nH]c2c1, the Potency was active: 10 µM.
With CCC(C(=O)NC1C(=O)N2C(C(=O)O)=C(CSc3nnc(C)s3)CSC12)c1ccccc1 (stereo unspecified) the “activity change, negative = inhibition” value was inactive: -0.971%.
In the case of C/C(=N\NC(=O)c1cc2ccccc2cc1O)c1ccc(C)o1, the “activity change, negative = inhibition” value is reported as inactive: -17.2%.
With C=CCn1c(SCc2ccc(C(=O)NCCO)cc2)nc2sc(C)c(C)c2c1=O the Potency was inconclusive [inhibitor, single point].
With Cc1ccc(Nc2nnc(SCC(=O)c3ccc(Br)s3)s2)c(C)c1 the “activity change, negative = inhibition” value was inactive: 7.44%.
For COc1ccc(CNCCCn2cnc3c(OCc4ccccc4)ncnc32)cc1, the Potency was inconclusive [inhibitor, single point].
With Clc1ccc(Cl)c2sc(N3CCOCC3)nc12 the Potency was active: 12.6 µM.
With N=C(N)c1ccc(N=Nc2c(O)ccc3c2[nH]c2ccccc23)cc1 the “activity change, negative = inhibition” value was inactive: -5.47%.
With Cc1ccc(-n2nnnc2SCC(=O)c2cc(C)n(-c3cc(C)on3)c2C)cc1 the Potency was inconclusive [inhibitor, full curve].
In the case of O=C(NCc1ccccc1F)C1CCCN1C(=O)Nc1ccc(F)cc1 (stereo unspecified), the “activity change, negative = inhibition” value is reported as inactive: 4.31%.
In the case of C=CCn1c(SCC(=O)Nc2ccc(NC(=O)c3ccco3)c(OC)c2)nnc1-c1ccncc1, the Potency is reported as inconclusive [inhibitor, partial curve].
In the case of CN(c1ccc(C(=O)N2CCN(Cc3ccc4c(c3)OCO4)CC2)cc1)S(=O)(=O)c1ccccc1, the Potency is reported as active: 6.31 µM.
With CCC(CO)Nc1nc2ccc(Cl)cc2c2ccccc12 (stereo unspecified) the Potency was active: 3.98 µM.
In the case of COc1ccc(/C=C/C(=O)Nc2ccccc2Cl)cc1S(=O)(=O)N1CCOCC1, the Potency is reported as inconclusive [inhibitor, single point].
In the case of O=C(C1CCCN(c2ncnc3c2nc2n3CCCCC2)C1)N1CCN(c2ccccc2F)CC1 (stereo unspecified), the Potency is reported as inconclusive [inhibitor, partial curve].
In the case of C/C(=C\c1ccccc1)CN1CCN(Cc2ccc(C)o2)C(CCO)C1 (stereo unspecified), the “activity change, negative = inhibition” value is reported as inactive: 2.55%.
In the case of COc1ccc(C2=NOC(C(=O)N3CCCc4ccccc43)C2)cc1 (stereo unspecified), the “activity change, negative = inhibition” value is reported as inactive: -24.9%.
For COC(=O)CSc1nc(-c2ccc(C)cc2)c2c(c1C#N)CCCC2, the Potency was inconclusive [inhibitor, single point].
For COc1ccc(CN(CCCN2CCOCC2)C(=O)Nc2cccc(Cl)c2)cc1OC, the Potency was inconclusive [inhibitor, single point].
For CCCC(=O)Nc1nc2ccc(OC)cc2s1, the Potency was inconclusive [inhibitor, partial curve].
In the case of CCOC(=O)N1CCC(NC(=O)CCC(=O)c2ccccc2)CC1, the “activity change, negative = inhibition” value is reported as inactive: 18.7%.
In the case of COc1ccc(CCNC(=O)c2cc(-c3cc(C)ccc3O)n[nH]2)cc1OC, the Potency is reported as inconclusive [inhibitor, single point].
With CN1N=C(C(C)(C)C)CSC1=Nc1ccc(F)cc1 the “activity change, negative = inhibition” value was inactive: -6.61%.
In the case of COc1cc2nc(COc3ccc(C#N)cc3)n(CC#N)c(=O)c2cc1OC, the Potency is reported as inconclusive [inhibitor, partial curve, poor fit].
For CC(C)c1nc(N2CCN(C(=O)c3ccco3)CC2)c(C#N)c2c1COC(C)(C)C2, the Potency was inconclusive [inhibitor, single point].
For CCOc1ccc(Oc2c(/C=N/NC(=O)COc3ccccc3OC)c(C)nn2-c2ccccc2)cc1, the Potency was active: 12.6 µM.
For O=C(Nc1cccc(NC(=O)c2cccs2)c1)c1ccc2c(c1)OCO2, the Potency was inconclusive [inhibitor, partial curve, poor fit].
